Reference: the supplement of paper PMC3334620
Over roughly 33,000 sequences, “E-score (-0.5 to 0.5)” has its median near -0.053; the highest 2% begin near 0.37. Some of the results follow.

Each sequence was assayed against Hap1 (UniProt P0CE41) (assay: PBM E-score (8-mer binding enrichment) (E-score (-0.5 to 0.5)); higher = stronger / more preferred TF binding; most listed sequences are background and not binding sites). Details: protein concentration: 200 nM; construct: GST-DNA-binding domain.
UniProt P0CE41, sequence (P0CE41 whole entry, the tested form may be a part): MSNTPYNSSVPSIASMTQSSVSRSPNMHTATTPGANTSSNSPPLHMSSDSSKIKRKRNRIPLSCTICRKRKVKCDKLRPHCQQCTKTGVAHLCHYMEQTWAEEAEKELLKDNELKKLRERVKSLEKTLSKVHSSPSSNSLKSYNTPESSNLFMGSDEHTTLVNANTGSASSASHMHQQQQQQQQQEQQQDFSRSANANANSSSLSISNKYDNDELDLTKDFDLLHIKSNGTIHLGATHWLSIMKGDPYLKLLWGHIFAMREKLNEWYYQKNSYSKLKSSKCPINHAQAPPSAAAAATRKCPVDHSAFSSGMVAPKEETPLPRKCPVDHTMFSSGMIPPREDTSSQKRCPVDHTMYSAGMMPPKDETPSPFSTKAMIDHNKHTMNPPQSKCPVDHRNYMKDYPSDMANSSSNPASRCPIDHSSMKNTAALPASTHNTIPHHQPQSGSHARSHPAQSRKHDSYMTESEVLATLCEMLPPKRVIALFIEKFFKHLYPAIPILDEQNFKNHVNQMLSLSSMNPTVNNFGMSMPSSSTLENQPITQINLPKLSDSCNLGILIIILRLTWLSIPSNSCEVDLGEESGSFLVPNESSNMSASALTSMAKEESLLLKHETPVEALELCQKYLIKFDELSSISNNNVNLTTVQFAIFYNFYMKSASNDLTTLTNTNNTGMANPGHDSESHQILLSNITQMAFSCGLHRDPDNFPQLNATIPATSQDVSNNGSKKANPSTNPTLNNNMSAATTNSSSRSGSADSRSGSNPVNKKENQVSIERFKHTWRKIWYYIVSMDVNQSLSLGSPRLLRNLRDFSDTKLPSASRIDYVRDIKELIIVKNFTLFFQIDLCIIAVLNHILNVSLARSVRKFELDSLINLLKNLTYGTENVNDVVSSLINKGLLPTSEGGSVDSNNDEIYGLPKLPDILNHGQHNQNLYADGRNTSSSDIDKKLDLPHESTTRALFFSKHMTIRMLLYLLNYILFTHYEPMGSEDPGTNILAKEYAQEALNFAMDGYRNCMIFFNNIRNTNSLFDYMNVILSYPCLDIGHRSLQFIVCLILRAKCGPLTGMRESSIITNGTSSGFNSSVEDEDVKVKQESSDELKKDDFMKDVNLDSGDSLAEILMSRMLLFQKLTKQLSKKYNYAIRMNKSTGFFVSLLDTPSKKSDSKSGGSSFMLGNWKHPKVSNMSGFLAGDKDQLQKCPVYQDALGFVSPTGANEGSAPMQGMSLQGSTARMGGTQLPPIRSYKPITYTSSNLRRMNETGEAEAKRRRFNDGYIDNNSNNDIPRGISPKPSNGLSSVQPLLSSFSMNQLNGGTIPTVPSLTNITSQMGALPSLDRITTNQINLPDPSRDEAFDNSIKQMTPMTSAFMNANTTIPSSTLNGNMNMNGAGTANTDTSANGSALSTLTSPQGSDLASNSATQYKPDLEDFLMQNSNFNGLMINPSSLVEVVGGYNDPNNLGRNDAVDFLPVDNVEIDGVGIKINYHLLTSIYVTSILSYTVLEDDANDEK
Summary of the method: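 Full-length yeast transcription factors or their DNA-binding domains, GST-tagged and expressed with PURExpress, were applied at about 100-200 nM to universal all-10-mer Agilent arrays. These arrays had been made double-stranded by primer extension on fresh or once-stripped slides. Detection used fluorescent anti-GST, normalisation used masliner, and E-scores for ungapped eight-base words pooled with reverse complements came from the Universal PBM Analysis Suite.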
For GTTCACAA, the “PBM E-score” value was -0.0642.
For CGGAAGGA, the “PBM E-score” value was 0.23.
In the case of ACTGATAC, the “PBM E-score” value is reported as -0.0124.
With ATTGACAC the “PBM E-score” value was -0.24.
In the case of AAATCTGC, the “PBM E-score” value is reported as -0.142.
In the case of GCTCGCCC, the “PBM E-score” value is reported as -0.00337.
With ATGGTTCA the “PBM E-score” value was -0.0973.
CTAGCATA was tested, and the “PBM E-score” value was -0.0461.
For GATAACTA, the “PBM E-score” value was 0.143.
For AACCCGTA, the “PBM E-score” value was 0.171.
CTGAGCGC was tested, and the “PBM E-score” value was -0.176.
With AAGGAGTC the “PBM E-score” value was -0.166.
For GCTGCGAA, the “PBM E-score” value was -0.104.
In the case of CGACACAA, the “PBM E-score” value is reported as -0.129.
With ACACAGCC the “PBM E-score” value was 0.0235.
GGTTCTTA was tested, and the “PBM E-score” value was -0.059.
In the case of AGATCACT, the “PBM E-score” value is reported as -0.0154.
In the case of CAGATAGC, the “PBM E-score” value is reported as -0.202.
GGCCGGGA was tested, and the “PBM E-score” value was 0.336.
In the case of TACGTCTA, the “PBM E-score” value is reported as -0.271.
AGGTCGTC was tested, and the “PBM E-score” value was -0.0954.
AATCACAT was tested, and the “PBM E-score” value was 0.0324.
In the case of AAGTACTT, the “PBM E-score” value is reported as -0.0508.
GCCTCGGA was tested, and the “PBM E-score” value was 0.331.
For ACACACAT, the “PBM E-score” value was -0.133.
With GACTCTCA the “PBM E-score” value was -0.0761.
With CAGTTGAG the “PBM E-score” value was -0.225.
In the case of ATACTCAG, the “PBM E-score” value is reported as -0.00136.
With CCATGATA the “PBM E-score” value was -0.132.
For AGAGACCT, the “PBM E-score” value was -0.0963.
For ACATAAGC, the “PBM E-score” value was -0.0155.
With GTGCACCA the “PBM E-score” value was -0.15.
With CATCTAGA the “PBM E-score” value was -0.209.
In the case of TGTTAACA, the “PBM E-score” value is reported as -0.0556.
In the case of ACTTTTAG, the “PBM E-score” value is reported as -0.0277.
With GCTAGGAC the “PBM E-score” value was -0.0426.
For TCCCTCAA, the “PBM E-score” value was -0.122.
ACGTGTCG was tested, and the “PBM E-score” value was -0.181.
For GATTCGGA, the “PBM E-score” value was 0.299.
In the case of ATGGTCGC, the “PBM E-score” value is reported as 0.0358.
With CATTGGCC the “PBM E-score” value was -0.146.
GGATATAA was tested, and the “PBM E-score” value was 0.382.
CCTACCCA was tested, and the “PBM E-score” value was -0.316.
In the case of GATGGGAA, the “PBM E-score” value is reported as -0.247.
For CGCCCCGA, the “PBM E-score” value was 0.365.
For AGGTTAAG, the “PBM E-score” value was -0.241.
With CCCCAACA the “PBM E-score” value was -0.121.
In the case of GCACAAAC, the “PBM E-score” value is reported as -0.00294.
CCTGAAGG was tested, and the “PBM E-score” value was -0.281.
With CGGTAACG the “PBM E-score” value was 0.301.
GGCGAGCC was tested, and the “PBM E-score” value was -0.00718.
In the case of CGGCCTAA, the “PBM E-score” value is reported as 0.257.
AGATGAAA was tested, and the “PBM E-score” value was -0.154.
With CTAGCGAA the “PBM E-score” value was -0.245.
With CATCGATC the “PBM E-score” value was -0.0952.
CAGACGCA was tested, and the “PBM E-score” value was -0.116.
In the case of AGAGTTCG, the “PBM E-score” value is reported as 0.0504.
In the case of GTGACGTA, the “PBM E-score” value is reported as -0.0822.
With AGTTCCAG the “PBM E-score” value was -0.09.
For CGTAAGGA, the “PBM E-score” value was -0.0439.
With ATCGATGA the “PBM E-score” value was -0.0523.
For CCTCTCCC, the “PBM E-score” value was -0.239.
In the case of ACCTACGA, the “PBM E-score” value is reported as -0.25.
For CCAGTCGC, the “PBM E-score” value was 0.0863.
With AGTGCCGC the “PBM E-score” value was 0.088.
With CAGGCCTA the “PBM E-score” value was -0.163.
In the case of CCTCAGAA, the “PBM E-score” value is reported as -0.308.
CACTGATA was tested, and the “PBM E-score” value was -0.348.
CAACCATG was tested, and the “PBM E-score” value was -0.0771.
With AGCTTGAG the “PBM E-score” value was -0.0792.
For CCGCGGCA, the “PBM E-score” value was 0.273.
GTGGCTCA was tested, and the “PBM E-score” value was -0.268.
ATCTCCAG was tested, and the “PBM E-score” value was 0.0473.
In the case of CGCTTCCC, the “PBM E-score” value is reported as 0.111.
For TAGTAGCA, the “PBM E-score” value was -0.123.
With AAAATCTG the “PBM E-score” value was -0.103.
For AAAGCACC, the “PBM E-score” value was 0.0385.
In the case of ATCTGTGA, the “PBM E-score” value is reported as -0.0202.
For CGTATGAG, the “PBM E-score” value was -0.0106.
For GATGGGCA, the “PBM E-score” value was -0.122.
CAAGTCAA was tested, and the “PBM E-score” value was -0.327.
ACAGTCCA was tested, and the “PBM E-score” value was -0.262.
With TAATGCTA the “PBM E-score” value was -0.0594.
GGTTCCTA was tested, and the “PBM E-score” value was -0.102.
With ACAAGAGG the “PBM E-score” value was -0.125.
CCCTTATA was tested, and the “PBM E-score” value was 0.0837.
With AAGGAAAG the “PBM E-score” value was 0.0672.
With CTCAAGTC the “PBM E-score” value was -0.144.
With AACGGGGC the “PBM E-score” value was 0.161.
CTTGTGAA was tested, and the “PBM E-score” value was -0.141.
In the case of AACGTCAA, the “PBM E-score” value is reported as -0.179.
In the case of AATATGGT, the “PBM E-score” value is reported as 0.0334.
ATAGGACC was tested, and the “PBM E-score” value was 0.109.
In the case of AAACGCCA, the “PBM E-score” value is reported as 0.0524.
For CGTAGTCC, the “PBM E-score” value was -0.0415.
With AAGGTGCA the “PBM E-score” value was -0.191.
With CTCATGCA the “PBM E-score” value was -0.111.
For TTATTAAA, the “PBM E-score” value was -0.0798.
GGCATGCC was tested, and the “PBM E-score” value was 0.102.
With ATTTTCTC the “PBM E-score” value was 0.0203.
In the case of AGTAGCCA, the “PBM E-score” value is reported as -0.307.
AAAGACCT was tested, and the “PBM E-score” value was -0.157.
For AGATTCGA, the “PBM E-score” value was -0.117.
In the case of GATTGATA, the “PBM E-score” value is reported as -0.178.
With CATGCTGC the “PBM E-score” value was -0.182.
CTGATAGA was tested, and the “PBM E-score” value was -0.112.
In the case of ATAAGATG, the “PBM E-score” value is reported as -0.0565.
For CATGCTAG, the “PBM E-score” value was -0.116.
In the case of ATACCACC, the “PBM E-score” value is reported as 0.122.
With CATATGTC the “PBM E-score” value was -0.027.
CTCTATCC was tested, and the “PBM E-score” value was 0.0342.
In the case of CTTGCTCC, the “PBM E-score” value is reported as 0.08.
In the case of GTCGACTA, the “PBM E-score” value is reported as -0.0778.
With GGTTCTAC the “PBM E-score” value was -0.0237.
ACTTGGGA was tested, and the “PBM E-score” value was -0.0657.
AATTCAAG was tested, and the “PBM E-score” value was -0.113.
With GCTCAAAA the “PBM E-score” value was -0.0646.
In the case of TCAAACCA, the “PBM E-score” value is reported as 0.0547.
With ACCAGCAG the “PBM E-score” value was -0.315.
CACTCTAC was tested, and the “PBM E-score” value was -0.106.
For AGCCAGGA, the “PBM E-score” value was -0.178.
ACATTCAT was tested, and the “PBM E-score” value was -0.149.
For CGGTGGTC, the “PBM E-score” value was 0.219.
In the case of ATCGGGCA, the “PBM E-score” value is reported as 0.238.
For GGCTCACC, the “PBM E-score” value was -0.0994.
With TGCAACAA the “PBM E-score” value was -0.119.
With GCGGAGCC the “PBM E-score” value was 0.224.
GTATTAGA was tested, and the “PBM E-score” value was 0.0422.
With ACCGATGC the “PBM E-score” value was 0.174.
CAAGAGCG was tested, and the “PBM E-score” value was -0.11.
With GTAGACAC the “PBM E-score” value was 0.107.
With CGGTGTGA the “PBM E-score” value was 0.19.
GAATGCGC was tested, and the “PBM E-score” value was 0.171.
With ATGACTAA the “PBM E-score” value was -0.169.
CCTGGGGA was tested, and the “PBM E-score” value was -0.353.
ACAGGCAA was tested, and the “PBM E-score” value was -0.148.
With CATAGGGC the “PBM E-score” value was -0.19.
With GACGGGTA the “PBM E-score” value was -0.0855.
For AGAGCGGC, the “PBM E-score” value was 0.0913.
ATATGATC was tested, and the “PBM E-score” value was -0.0739.
ATTGCCAA was tested, and the “PBM E-score” value was -0.182.
For GTGAAGCA, the “PBM E-score” value was -0.181.
For GCCAAAGA, the “PBM E-score” value was -0.165.
With AATGTGGA the “PBM E-score” value was -0.0844.
With CATTCAGG the “PBM E-score” value was -0.187.
With CGTTTACA the “PBM E-score” value was -0.145.
CCATCTAG was tested, and the “PBM E-score” value was -0.139.
GCTGCTAC was tested, and the “PBM E-score” value was -0.212.
GATACTGA was tested, and the “PBM E-score” value was -0.0701.
In the case of CCCATTAC, the “PBM E-score” value is reported as -0.0355.
In the case of GGGCCGAC, the “PBM E-score” value is reported as 0.312.
In the case of ACTCGGCG, the “PBM E-score” value is reported as 0.259.
In the case of CTTGCTAA, the “PBM E-score” value is reported as -0.204.
With ACCGTATG the “PBM E-score” value was -0.0565.
AGTGAAGG was tested, and the “PBM E-score” value was -0.187.
In the case of ACCAAGAT, the “PBM E-score” value is reported as -0.118.
With CCACCAAA the “PBM E-score” value was -0.217.
In the case of AGCCCCAT, the “PBM E-score” value is reported as -0.108.
For CCATGGGA, the “PBM E-score” value was -0.0745.
In the case of CATGAGAA, the “PBM E-score” value is reported as -0.103.
In the case of CCTGGGTA, the “PBM E-score” value is reported as -0.138.
CTTCCGTC was tested, and the “PBM E-score” value was 0.26.
For CCGGGGCA, the “PBM E-score” value was 0.312.
In the case of CCATTCAC, the “PBM E-score” value is reported as -0.0244.
In the case of AAAACCCT, the “PBM E-score” value is reported as -0.0696.
With CATGCGAG the “PBM E-score” value was -0.062.
For GCTGAGCC, the “PBM E-score” value was -0.119.
For AGAAAATG, the “PBM E-score” value was -0.091.
For AGCTTCAG, the “PBM E-score” value was -0.214.
With AAGAAAGG the “PBM E-score” value was -0.175.
ACAGGGAT was tested, and the “PBM E-score” value was -0.16.
For ATCGAAGC, the “PBM E-score” value was -0.146.
